# Experimental data from article PMC12136788.
# The list shows a part of the results.
# T1: UNK ZnF1-3 (human, UniProt Q9C0B0 31-174)
# T1 sequence: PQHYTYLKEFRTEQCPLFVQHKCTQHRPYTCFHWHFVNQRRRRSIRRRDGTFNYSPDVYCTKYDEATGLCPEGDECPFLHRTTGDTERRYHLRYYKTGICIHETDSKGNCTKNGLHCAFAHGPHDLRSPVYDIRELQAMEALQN
# B1: chr4:156296975:156296976:-_ENSG00000164114_ENST00000311277|hu_mus|FALSE|FALSE (ssRNA)
# RNA: GGGAGUUCUACAGUCCGACGAUCUCCUGAAAGGAAGUUCUCUUGGUAGCCUUUGGACUCUUGGUGUACGCCAAAGUUGUGCUGAAGAUUUCAUCGGACAUGGUGUGUCCUUUUUCUCUGCUUUUAUACAACAGUUAAUAAAUUCAACAGAGGAUUGAGCAUCA
# B2: chr7:65617436:65617437:+_ENSG00000241258_ENST00000415001|hu_mus|FALSE|FALSE (ssRNA)
# RNA: GGGAGUUCUACAGUCCGACGAUCGACCCCAAAGCACAAAGAUUUCUUUUCAUCUUAUUUUUGUGAUUUUUUUCCCCCAACAAAUCCUGAGAUCAGGCAUACUGAGAGAGGGGGUCAGGCCAAAUAAAGAGUUCUCUGAACAUCCAACAGAGGAUUGAGCAUCA
# B3: chr14:78183846:78183847:+_ENSG00000119705_ENST00000557342|hu_hu|hu_hu_hu_mus_False|48_88 (ssRNA)
# RNA: GGGAGUUCUACAGUCCGACGAUCUCUCAGAAAUCUUUCUUCAUCAGCAUCAUCAGAUCCGUGCAAAGCCUUUGCUCUUUGAGCUUGAACCUGGACCUAUGGGAGGGAAAGCACUGUCAGAAAAGGUAAUUUUUUUUUUAAAGACAACAGAGGAUUGAGCAUCA
# B4: 98015970_98016090_1530_3pUTR_ENSMUSG00000041773_ENSMUST00000041623|mouse|control|control (ssRNA)
# RNA: GGGAGUUCUACAGUCCGACGAUCAGCAGAUCCAUGGCCAAACCUGGCCACCAGCAUGGGGGCAGCCUUGGACCACUCCUCAUGCAGGGUAUCGUAAACCCAGACAUCUUUUGAGACUCCGUUCUCUGAUCCCCGCCCCCCAGUCAACAGAGGAUUGAGCAUCA
# B5: chr9:95013113:95013114:-_ENSG00000196305_ENST00000443024|hu_hu|hu_hu_hu_mus_False|48_108 (ssRNA)
# RNA: GGGAGUUCUACAGUCCGACGAUCCUCAGUGAGAAAAGGCGUGUAAGGGGCCAUCAGUCUGCACAGAGAAAGCAGGACACUGAACAGGGUUUCUAGGGCCAUGACACAGUCUUCCACCCCACUCUCACCCUUUAACCUCCUCCUCAACAGAGGAUUGAGCAUCA
# B6: 153235310_153235430_3441_3pUTR_ENSMUSG00000061411_ENSMUST00000109784|mouse|control|control (ssRNA)
# RNA: GGGAGUUCUACAGUCCGACGAUCUUUGUGUCUAGCUUGGGUACUGCCUCUGGGAGCAGACAGAAUGCGGUAAGCAAUUGAUAACAGAAAUUCUAGGGUGGCGAUUGUCUCUGCCAAUUUUCAACAUUUUCACAAAUUGCCUGGCAACAGAGGAUUGAGCAUCA
# B7: chr21:38862523:38862524:+_ENSG00000157540_ENST00000338785|hu_hu|motif|central (ssRNA)
# RNA: GGGAGUUCUACAGUCCGACGAUCUCGGAAAUUGGUGUUUCUCAGCAAGUCAUAGAGGUUGUAGGACAGCAUUUCAAAAACGGAACAGAGAUGGUUUCGAAACAUAAAGUGGCGUUUCAAAUGCACUAUGUAGUAUUUCAUUUCCAACAGAGGAUUGAGCAUCA
# B8: chr11:87793471:87793472:-_ENSMUSG00000020483_ENSMUST00000020775|mus_mus|mus_mus_mus_hu_False|48_58 (ssRNA)
# RNA: GGGAGUUCUACAGUCCGACGAUCUGGACUUGAAAAUAAAAGAAUAAGCUGGAUCCCCCACCCCCCCACAUUGUCAACCCUAUGCGAGUUCUGAAUGGGCGACUCAUGAAAAUCAGCAGCUCAAACGGCAAUGACCACCCCACCCAACAGAGGAUUGAGCAUCA
# B9: 26842443_26842563_970_3pUTR_ENSG00000120159_ENST00000333916|human|control|control (ssRNA)
# RNA: GGGAGUUCUACAGUCCGACGAUCUUUGGGCUAGACUCUGCCAGUCCUAGAAUCUCAUUCACACUUUUCUCAAUGUCUUUCUCCAGGUCAUCUAUCUGACCAGCUUCACUUUGGACUGUAUUUUCUGGUGCCUCGGGAGCAGCUCAACAGAGGAUUGAGCAUCA
# B10: chr7:56126341:56126342:+_ENSG00000146731_ENST00000540286|hu_hu|FALSE|FALSE (ssRNA)
# RNA: GGGAGUUCUACAGUCCGACGAUCCAUAUUUCUCCUUUUAGCUCUGCGCAGAGCAACUAUGCCUUCUUUUGAAAGAGCAUCUAAGGAAAAGGGGUCAAUUCCCUUUUGAUUAAUAACAACAAAUCCUUUAUCUGAAUCGCCACACAACAGAGGAUUGAGCAUCA
# B11: chr17:66519878:66519879:+_ENSG00000108946_ENST00000358598|hu_hu|motif|central (ssRNA)
# RNA: GGGAGUUCUACAGUCCGACGAUCACUUCUCUCAUUAUCAUCAAGAUGUGAAAACAGCACAUUCUUUUCAAUGGCUUUGGCGGAAGCGGCCAUUGUCUUGUAAUCUUUUGGUAUAACCUUUCUAACAUAGGAUGCCGCAUCUUCCAACAGAGGAUUGAGCAUCA
# B12: 76570844_76571599_1278_CDS_ENSG00000138757_ENST00000395719|human|control|control (ssRNA)
# RNA: GGGAGUUCUACAGUCCGACGAUCCUCUUCCACAUUUAAACGUACUUCCCCUCGAAACAUAAUCGGUUUUGCAAUUAAGAUUCUCUGAACUGGUUCAGAGUCAUCAAAAACCACAAAACCAAAAUUUGGAAGCUUUCCCCCAACCAACAGAGGAUUGAGCAUCA
# B13: 21046971_21047091_874_3pUTR_ENSMUSG00000020134_ENSMUST00000093290|mouse|control|control (ssRNA)
# RNA: GGGAGUUCUACAGUCCGACGAUCAUCAAACCCUGCAGCAUAAAUCCGAGCUGUAAAGGGGGGACUGCGCUCACAUAUGAUCCUACAGGCAAAUCUUGAUAUAGUGCUUUGUACUGACUGCGUGUCGGAAUUACUCUGACUUCCCAACAGAGGAUUGAGCAUCA
# B14: chr4:117809766:117809767:-_ENSMUSG00000033326_ENSMUST00000106406|mus_hu|FALSE|FALSE (ssRNA)
# RNA: GGGAGUUCUACAGUCCGACGAUCAGGCAAACAAAUUCUUGAGGAGCAAAAACCUGUUUAACCCCUUCAGUAUUGCCCUCUAGUCCCACCCCCCACCCCAAAAUCAGCUCCCUCCCACCUACAGUGGGCCUCCAAUGGCCCCAGCAACAGAGGAUUGAGCAUCA
# B15: chr4:144460044:144460045:+_ENSG00000153147_ENST00000283131|hu_mus|hu_hu_hu_mus_False|78_98 (ssRNA)
# RNA: GGGAGUUCUACAGUCCGACGAUCACGGUCCAUAGCCUGAAGAUCUACUUGCGGAUUCCAAUCAGAAUCAUAUAAAAUGACUACAUCAGCAGUUGCAAGAUUGAUGCCCAGACCACCAGCACGUGUGCUUAGCAUAAAUACAAACAACAGAGGAUUGAGCAUCA
# B16: chr18:21005031:21005032:-_ENSMUSG00000033382_ENSMUST00000025177|mus_mus|motif|central (ssRNA)
# RNA: GGGAGUUCUACAGUCCGACGAUCAAACUUCCAGAGUAAUGACAAAUCAGACAGCAAAAGCGGAACUUUUAAAGGGUUUCGGAAAGCCACUUCCACAGUAAUUGGCUCUUCUACAACUGCAAGUGGAAACCUGGAGUUAUCGGACAACAGAGGAUUGAGCAUCA
# B17: chr10:8116392:8116393:+_ENSG00000107485_ENST00000346208|hu_hu|motif|central (ssRNA)
# RNA: GGGAGUUCUACAGUCCGACGAUCACUGUGGCCAGUGAAAGGAAACAAAACUGGCAGUUUGUCCAUUUGAAUAUCAGACCGGGUUUCUUCUUAAUUUCCACACUAUUUCUCCCAUAUUCCUUAAACUUCUUGGCAUCCUUCAUGCAACAGAGGAUUGAGCAUCA
# B18: chr2:216981417:216981418:+_ENSG00000079246_ENST00000392132|hu_hu|hu_hu_hu_mus_True|98_108 (ssRNA)
# RNA: GGGAGUUCUACAGUCCGACGAUCCUGAUACUGAUCCCCACCAGAAAGGGCAUUAUCAGUGCCAUCUGUGCCAUAGAGGACUAACGCAAUCUCAUCUUUGCUCUCCGAAAAUACCUGUCGUUGGACAAACAUAGUCAUCACUUUCAACAGAGGAUUGAGCAUCA
# B19: chr3:33863462:33863463:+_ENSG00000170248_ENST00000307296|hu_hu|FALSE|FALSE (ssRNA)
# RNA: GGGAGUUCUACAGUCCGACGAUCUGCAAUUUGGCUAGCUAAGGCUGCACAAUUGAACAACACACAGCUCUUUUCAUAUCCUAAGCUUGCAAGAGCCAGUUUUACAGAGCCUCCAAAAAGUGAACCUUUAUCGAAAGCAUCCUUCAACAGAGGAUUGAGCAUCA
# B20: chrX:71549400:71549401:+_ENSMUSG00000019087_ENSMUST00000019231|mus_hu|mus_mus_mus_hu_False|58_58 (ssRNA)
# RNA: GGGAGUUCUACAGUCCGACGAUCGCAGUAGGAAGAGGGAAGCUCUUCAGUCCAGUGCGCUGCAGGGUGGGAAAGCACAACCUAGACCACCGUCCCACCCUCAACCCCCCCACUGGCACAGGGUCACACAAUCUGGGUCAAAGACAACAGAGGAUUGAGCAUCA
# B21: chr6:47494509:47494510:-_ENSMUSG00000029687_ENSMUST00000081721|mus_hu|FALSE|FALSE (ssRNA)
# RNA: GGGAGUUCUACAGUCCGACGAUCCCCAAUUAACCUAGCAAUGGCACAGAAAUUGUCAUAGUAAGUGCCAAUGAGGACUCUAAACAUUGAGGCUUCAGCACCACUCCACUCCACAUUCUCAGGAGGUUCAAUAUUUGGCUUCAUCAACAGAGGAUUGAGCAUCA
# B22: 1968776_1968896_4023_CDS_ENSG00000070366_ENST00000263073|human|control|control (ssRNA)
# RNA: GGGAGUUCUACAGUCCGACGAUCGUCCUCACUGCGGAAGGCGAUGGAUUCGAGUUCAUUGCCACGGCUGGUCAGGGCUCGCAGGCAAGAGUCCCGACUCUCGAAUCGCUGCUCGAGGAACUCGAUGGACUUGCGGGCCUUCUCCAACAGAGGAUUGAGCAUCA
# Target: T1, UNK ZnF1-3
# Experiment: nsRBNS (natural sequence RNA bind-n-seq); RBNS binding buffer (assumed for nsRBNS): 25 mM Tris pH 7.5, 150 mM KCl, 3 mM MgCl2, 0.01% Triton X-100, 500 ug/ml BSA, 20 U/ml SUPERase-In, 4 C; UNK is unkempt and MSI1 is Musashi-1; names of the RNAs are library labels; protein concentration not given here; high values mean tight binding
row,Binder,binding signal
1,B1,0.543 enrichment R
2,B2,1.42 enrichment R
3,B3,1.91 enrichment R
4,B4,0.937 enrichment R
5,B5,0.754 enrichment R
6,B6,1.06 enrichment R
7,B7,0.844 enrichment R
8,B8,2.04 enrichment R
9,B9,0.46 enrichment R
10,B10,1.66 enrichment R
11,B11,0.84 enrichment R
12,B12,1.61 enrichment R
13,B13,1.04 enrichment R
14,B14,1.78 enrichment R
15,B15,1.34 enrichment R
16,B16,1.07 enrichment R
17,B17,1.01 enrichment R
18,B18,0.858 enrichment R
19,B19,1.09 enrichment R
20,B20,1.55 enrichment R
21,B21,1.65 enrichment R
22,B22,0.418 enrichment R
